# Results reported in the supplement of paper PMC3334620.
# In all, about 33,000 sequences were measured (“E-score (-0.5 to 0.5)”: median about -0.013, highest 2% from about 0.3 on). The list shows a part of the results.
# Molecular target: T1, Msn1 (UniProt P22148)
# T1 sequence: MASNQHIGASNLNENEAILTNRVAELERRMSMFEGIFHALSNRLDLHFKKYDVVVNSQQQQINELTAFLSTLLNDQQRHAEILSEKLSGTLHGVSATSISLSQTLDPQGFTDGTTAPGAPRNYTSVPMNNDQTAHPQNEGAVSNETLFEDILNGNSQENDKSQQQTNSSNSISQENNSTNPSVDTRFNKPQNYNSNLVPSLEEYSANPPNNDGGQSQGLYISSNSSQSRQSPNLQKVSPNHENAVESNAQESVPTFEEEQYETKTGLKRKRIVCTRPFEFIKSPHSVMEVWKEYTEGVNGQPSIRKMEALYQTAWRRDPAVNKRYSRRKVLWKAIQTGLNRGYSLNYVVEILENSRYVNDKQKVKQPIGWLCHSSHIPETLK
# Test: PBM E-score (8-mer binding enrichment) (E-score (-0.5 to 0.5)); higher = stronger / more preferred TF binding; most listed sequences are background and not binding sites
# Details: protein concentration: 200 nM; construct: GST-full length
# Summary of the method: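 Universal all-10-mer Agilent arrays, double-stranded by primer extension on fresh or once-stripped slides, were probed with about 100-200 nM GST-tagged yeast transcription factors made by PURExpress. Fluorescent anti-GST detected bound protein, and masliner normalised the scans. E-scores from the Universal PBM Analysis Suite were given to each ungapped eight-base word pooled with its reverse complement.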
row,Sequence,PBM E-score
1,CTCCGGTC,-0.0955
2,CCTCCTGA,-0.153
3,CCCGATAA,-0.00187
4,TCTGTGAA,0.157
5,TATATTCA,0.0535
6,GTATTGCA,-0.0906
7,CCAAGTGG,0.0408
8,CGCTCGGA,0.134
9,TAGTACCA,0.11
10,CAGTTATA,0.0609
11,CCGTAGAC,-0.0592
12,ACCTTCCT,-0.285
13,AACCCCTC,-0.189
14,CAATAACG,0.14
15,TATATGGA,0.0978
16,ACGTGTTC,-0.114
17,TACGCTAA,-0.0121
18,CAAAAAAA,0.201
19,CATCAGCG,-0.124
20,AGTTCCAC,-0.0563
21,CGGCGCGC,0.184
22,ATCCAAAC,0.0456
23,AGATTCAC,-0.218
24,AACCAGCC,-0.119

row,Sequence,PBM E-score
1,CTTATTTA,0.0475
2,TAGGCCGA,0.00568
3,GCACCGGA,-0.0489
4,CCAATACC,0.00365
5,CAACATGC,-0.059
6,CTGTTTTA,0.122
7,CGAGTGGA,-0.0134
8,AAAAGGTC,0.0953
9,ACCTAGAT,-0.199
10,CGTCCGTA,0.0029
11,CTTGTCCA,0.464
12,CAACAATC,0.0209
13,ATAGCGAA,0.0824
14,GTCACAGA,0.213
15,CCCTCTAA,-0.165
16,CAACTCGC,0.105
17,CACGTACG,0.046
18,AGACGGTC,-0.24
19,TGAGAGAA,0.00621
20,AAACTGCG,0.0328
21,ATGCGCGG,-0.0121
22,GTTTGTTA,0.0854
23,ATGGCAGA,0.0312
24,ATTGATCG,-0.0367

row,Sequence,PBM E-score
1,CAACGTGA,-0.082
2,ATGATGCG,0.127
3,CCCGAGTC,0.0567
4,CCGCGCCG,0.0126
5,CACACCAC,0.0275
6,AATCCTTC,-0.0471
7,TACGTTCA,0.107
8,GGTCCGAA,0.128
9,ACACCAAC,-0.116
10,GCGGAACC,0.0238
11,ACGCTACA,-0.132
12,TACATATA,0.249
13,CCATCTTC,0.117
14,TCACAGGA,0.0601
15,TGTTGTAA,0.0101
16,AGACTAGA,-0.148
17,CCTTGCCC,-0.154
18,AAAACTTA,0.123
19,AGCCAAGG,-0.024
20,ATTTACAA,0.147
21,TCCGTCAA,0.078
22,ATAACTTG,0.098
23,AATTTCAG,0.127
24,AATAACCG,-0.159

row,Sequence,PBM E-score
1,GAAGCGGC,-0.0496
2,AACTAGCC,-0.0783
3,GACGTGAA,0.143
4,AGGGGGGC,-0.452
5,ACGGCCCC,-0.312
6,ACAGCAAG,0.0631
7,CTAGTCGC,-0.121
8,CAGGAACA,0.112
9,CTAGACAA,0.305
10,ACGTGATA,-0.0675
11,AAAAAAGA,0.122
12,CTACTCGA,-0.0361
13,TCACCGAA,0.0587
14,AATTAGCA,0.0626
15,ACATAAAC,0.282
16,AGCGGACA,0.359
17,AATAAACC,-0.0182
18,ATTAACGC,0.00097
19,TCGCCAGA,-0.0726
20,ACCGAAAG,0.0147
21,AGACAGCA,0.0324
22,CATACTCG,0.0382
